{"source": "the supplement of paper PMC8728848", "binders": {"B1": {"name": "SialidaseA (Arthrobacter ureafaciens) (protein)", "chain": "MRSNSTSAPSLVRRAATGVLTCAVSIGLLAGLGLPAQAAPTPPNSPTLPPGSFSETNLAADRTAANFFYRIPALTYLGNDVVLAAWDGRPGSAADAPNPNSIVQRRSTDGGKTWGPVQVIAAGHVADASGPRYGYSDPSYIYDAEANKVFAFFVYSKDQGFGGSQFGNDDADRNVISSAVIESSDAGVTWSQPRLITSVTKPGTSKTNPAAGDVRSNFASSGEGIQLKYGPHKGRLIQQYAGDVRQADGSNKIQAYSVYSDDHGVTWHKGANVGDRMDENKTVELSDGRVLLNSRDNANRGYRKVAVSTDGGATYGPVSQDTELPDPANNGAIARMFPNAAQGSADAKKLIFTNANSKTGRENVSARVSCDDGETWPGVRTIRSGFSAYSTVTRLADGKFGVLYEGNYTDNMPFATFDDAWLNYVCAPLAVPAVNIAPSATQEVPVTVTNQEATTLSGATATVYTPSGWSATTVPVPDVAPGASVTVTVALTAPADASGPRSLNAAFTTADGRVSQFTFTATTPVAPQVGLTITGSAPARDVAANPYQAGDVLGYTLNVKSTANVAANSVPLTGTFDSGFLPPAAPNCRYNNLAAGASYNCTTAKHTITAADMERGYFVPEATFSITSTTTPSLTKTVQFTGAAVALRDGLISADISGARTDVGRDLATRPYAAGELVPYAFTVKNTSPFVEQVVPTAGNFSPFLPAGAGNCRYLSLPAGQSYECATPRHAVTAEEVEQGFFVPDTTWEVSAAGQSTRTYRINGGEVDLLVRDAALSATVVAEWKDADGDRFASAGDPVTFTYTVGNAGNVALTGLEAPDAGISLPFLAPGDTATATREHVLTAADVAGGSLAASAFEATARNGSKEVTATAEGQPLELKVQPAQPSKEPELTVQDLEDQTPPFDLGTAFKYRTGQKVSLAGLEYGQWYYVYLNKTGYRLGWMFPTTGDTVEFILPPEVRNGRDDVVVLDKDGRRVSFDRLQVTPKGEKI"}}, "test_in_all_cases": "glycan array binding signal (z-score within array); higher = stronger binding", "conditions_in_all_cases": "glycan notation: IUPAC condensed, linker removed", "key": {"[1]": {"molecular_target": "Gal(a1-3)Gal(b1-4)GlcNAc(b1-2)Man", "procedure,_shortened": "(§1)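 Columns mapping to the same glycan were averaged after glycan names were converted to IUPAC-condensed notation. The data come from 3228 arrays in the Consortium for Functional Glycomics database, limited to those with an available protein sequence. Binding is reported as a within-array Z-score averaged across arrays of one protein sequence and across linkers.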"}, "[2]": {"molecular_target": "Gal(a1-3)Gal(b1-4)GlcNAc(b1-2)Man(a1-3)[Gal(a1-3)Gal(b1-4)GlcNAc(b1-2)Man(a1-6)]Man(b1-4)GlcNAc(b1-4)GlcNAc", "procedure,_shortened": "as §1"}, "[3]": {"molecular_target": "Gal(a1-3)Gal(b1-4)GlcNAc(b1-3)GalNAc", "procedure,_shortened": "as §1"}, "[4]": {"molecular_target": "Gal(a1-3)Gal(b1-4)GlcNAc(b1-6)GalNAc", "procedure,_shortened": "as §1"}, "[5]": {"molecular_target": "Gal(a1-3)Gal(b1-4)[Fuc(a1-3)]GlcNAc", "procedure,_shortened": "as §1"}, "[6]": {"molecular_target": "Gal(a1-3)Gal(b1-4)[Fuc(a1-3)]GlcNAc(b1-2)Man(a1-3)[Gal(a1-3)Gal(b1-4)[Fuc(a1-3)]GlcNAc(b1-2)Man(a1-6)]Man(b1-4)GlcNAc(b1-4)GlcNAc", "procedure,_shortened": "as §1"}, "[7]": {"molecular_target": "Gal(a1-3)GalNAc", "procedure,_shortened": "as §1"}, "[8]": {"molecular_target": "Gal(a1-3)[Gal(a1-4)]Gal(b1-4)GlcNAc", "procedure,_shortened": "as §1"}, "[9]": {"molecular_target": "Gal(a1-4)Gal(b1-3)GlcNAc(b1-2)Man(a1-3)[Gal(a1-4)Gal(b1-3)GlcNAc(b1-2)Man(a1-6)]Man(b1-4)GlcNAc(b1-4)GlcNAc", "procedure,_shortened": "as §1"}, "[10]": {"molecular_target": "Gal(a1-4)Gal(b1-4)Glc", "procedure,_shortened": "as §1"}, "[11]": {"molecular_target": "Gal(a1-4)Gal(b1-4)GlcNAc", "procedure,_shortened": "as §1"}, "[12]": {"molecular_target": "Gal(a1-4)Gal(b1-4)GlcNAc(b1-2)Man(a1-3)[Gal(a1-4)Gal(b1-4)GlcNAc(b1-2)Man(a1-6)]Man(b1-4)GlcNAc(b1-4)GlcNAc", "procedure,_shortened": "as §1"}, "[13]": {"molecular_target": "Gal(a1-4)Gal(b1-4)GlcNAc(b1-3)Gal(b1-4)Glc", "procedure,_shortened": "as §1"}, "[14]": {"molecular_target": "Gal(a1-4)GlcNAc", "procedure,_shortened": "as §1"}, "[15]": {"molecular_target": "Gal(a1-6)Glc", "procedure,_shortened": "as §1"}, "[16]": {"molecular_target": "Gal(b1-2)Gal", "procedure,_shortened": "as §1"}, "[17]": {"molecular_target": "Gal(b1-3)Gal", "procedure,_shortened": "as §1"}, "[18]": {"molecular_target": "Gal(b1-3)Gal(b1-4)GlcNAc", "procedure,_shortened": "as §1"}, "[19]": {"molecular_target": "Gal(b1-3)GalNAc", "procedure,_shortened": "as §1"}, "[20]": {"molecular_target": "Gal(b1-3)GalNAc(a1-3)[Fuc(a1-2)]Gal(b1-4)Glc", "procedure,_shortened": "as §1"}, "[21]": {"molecular_target": "Gal(b1-3)GalNAc(a1-3)[Fuc(a1-2)]Gal(b1-4)GlcNAc", "procedure,_shortened": "as §1"}, "[22]": {"molecular_target": "Gal(b1-3)GalNAc(b1-3)Gal", "procedure,_shortened": "as §1"}, "[23]": {"molecular_target": "Gal(b1-3)GalNAc(b1-3)Gal(a1-4)Gal(b1-4)Glc", "procedure,_shortened": "as §1"}, "[24]": {"molecular_target": "Gal(b1-3)GalNAc(b1-4)Gal(b1-4)Glc", "procedure,_shortened": "as §1"}, "[25]": {"molecular_target": "Gal(b1-3)GalNAc(b1-4)[Neu5Ac(a2-3)]Gal(b1-4)Glc", "procedure,_shortened": "as §1"}, "[26]": {"molecular_target": "Gal(b1-3)GlcNAc", "procedure,_shortened": "as §1"}, "[27]": {"molecular_target": "Gal(b1-3)GlcNAc(a1-3)Gal(b1-4)GlcNAc", "procedure,_shortened": "as §1"}, "[28]": {"molecular_target": "Gal(b1-3)GlcNAc(a1-6)Gal(b1-4)GlcNAc", "procedure,_shortened": "as §1"}, "[29]": {"molecular_target": "Gal(b1-3)GlcNAc(b1-2)Man", "procedure,_shortened": "as §1"}, "[30]": {"molecular_target": "Gal(b1-3)GlcNAc(b1-2)Man(a1-3)[Gal(b1-3)GlcNAc(b1-2)Man(a1-6)]Man(b1-4)GlcNAc(b1-4)GlcNAc", "procedure,_shortened": "as §1"}}, "note": "Some of the results follow.", "data": [{"binder": "B1", "values": [{"measurement": "glycan array binding signal (z-score)", "setting": "[1]", "value": -0.819}, {"measurement": "glycan array binding signal (z-score)", "setting": "[2]", "value": 0.472}, {"measurement": "glycan array binding signal (z-score)", "setting": "[3]", "value": -0.615}, {"measurement": "glycan array binding signal (z-score)", "setting": "[4]", "value": -0.682}, {"measurement": "glycan array binding signal (z-score)", "setting": "[5]", "value": -0.607}, {"measurement": "glycan array binding signal (z-score)", "setting": "[6]", "value": -0.788}, {"measurement": "glycan array binding signal (z-score)", "setting": "[7]", "value": -0.822}, {"measurement": "glycan array binding signal (z-score)", "setting": "[8]", "value": -0.227}, {"measurement": "glycan array binding signal (z-score)", "setting": "[9]", "value": -0.146}, {"measurement": "glycan array binding signal (z-score)", "setting": "[10]", "value": -0.614}, {"measurement": "glycan array binding signal (z-score)", "setting": "[11]", "value": -0.33}, {"measurement": "glycan array binding signal (z-score)", "setting": "[12]", "value": 0.431}, {"measurement": "glycan array binding signal (z-score)", "setting": "[13]", "value": -0.51}, {"measurement": "glycan array binding signal (z-score)", "setting": "[14]", "value": -0.583}, {"measurement": "glycan array binding signal (z-score)", "setting": "[15]", "value": -0.881}, {"measurement": "glycan array binding signal (z-score)", "setting": "[16]", "value": -0.598}, {"measurement": "glycan array binding signal (z-score)", "setting": "[17]", "value": -0.451}, {"measurement": "glycan array binding signal (z-score)", "setting": "[18]", "value": -0.643}, {"measurement": "glycan array binding signal (z-score)", "setting": "[19]", "value": -0.587}, {"measurement": "glycan array binding signal (z-score)", "setting": "[20]", "value": -0.388}, {"measurement": "glycan array binding signal (z-score)", "setting": "[21]", "value": -0.72}, {"measurement": "glycan array binding signal (z-score)", "setting": "[22]", "value": -0.833}, {"measurement": "glycan array binding signal (z-score)", "setting": "[23]", "value": -0.431}, {"measurement": "glycan array binding signal (z-score)", "setting": "[24]", "value": -0.529}, {"measurement": "glycan array binding signal (z-score)", "setting": "[25]", "value": 1.65}, {"measurement": "glycan array binding signal (z-score)", "setting": "[26]", "value": -0.604}, {"measurement": "glycan array binding signal (z-score)", "setting": "[27]", "value": -0.431}, {"measurement": "glycan array binding signal (z-score)", "setting": "[28]", "value": -0.544}, {"measurement": "glycan array binding signal (z-score)", "setting": "[29]", "value": -0.135}, {"measurement": "glycan array binding signal (z-score)", "setting": "[30]", "value": 0.441}]}]}
